Assay results: the supplement of paper PMC8728848
The other results are listed elsewhere or left out.

Legend:
Experiment in all cases: glycan array binding signal (z-score within array); higher = stronger binding
Settings in all cases: glycan notation: IUPAC condensed, linker removed
Gal4S6S(b1-4)GlcNAc = target: Gal4S6S(b1-4)GlcNAc
Procedure, shortened: (§1)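 Columns mapping to the same glycan were averaged after glycan names were converted to IUPAC-condensed notation. The data come from 3228 arrays in the Consortium for Functional Glycomics database, limited to those with an available protein sequence. Binding is reported as a within-array Z-score averaged across arrays of one protein sequence and across linkers.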

Gal6S(b1-4)Glc = target: Gal6S(b1-4)Glc
Procedure, shortened: as §1

Gal6S(b1-4)Glc6S = target: Gal6S(b1-4)Glc6S
Procedure, shortened: as §1

Gal6S(b1-4)GlcNAc = target: Gal6S(b1-4)GlcNAc
Procedure, shortened: as §1

GalNAc(a1-3)Gal = target: GalNAc(a1-3)Gal
Procedure, shortened: as §1

GalNAc(a1-3)GalNAc = target: GalNAc(a1-3)GalNAc
Procedure, shortened: as §1

[1] = target: GalNAc(b1-3)Gal(a1-4)Gal(b1-4)GlcNAc
Procedure, shortened: as §1

GalNAc(b1-3)GalNAc = target: GalNAc(b1-3)GalNAc
Procedure, shortened: as §1

GalNAc(b1-4)GlcNAc = target: GalNAc(b1-4)GlcNAc
Procedure, shortened: as §1

Glc(a1-4)Glc = target: Glc(a1-4)Glc
Procedure, shortened: as §1

Glc(a1-6)Glc(a1-6)Glc = target: Glc(a1-6)Glc(a1-6)Glc
Procedure, shortened: as §1

Glc(b1-4)Glc = target: Glc(b1-4)Glc
Procedure, shortened: as §1

Glc(b1-6)Glc = target: Glc(b1-6)Glc
Procedure, shortened: as §1

GlcA(b1-3)Gal = target: GlcA(b1-3)Gal
Procedure, shortened: as §1

GlcA(b1-6)Gal = target: GlcA(b1-6)Gal
Procedure, shortened: as §1

[2] = target: GlcNAc(a1-3)Gal(b1-4)GlcNAc
Procedure, shortened: as §1

[3] = target: GlcNAc(a1-6)Gal(b1-4)GlcNAc
Procedure, shortened: as §1

[4] = target: GlcNAc(b1-2)Gal(b1-3)GalNAc
Procedure, shortened: as §1

[5] = target: GlcNAc(b1-2)Man(a1-3)[GlcNAc(b1-2)Man(a1-6)]Man(b1-4)GlcNAc(b1-4)GlcNAc
Procedure, shortened: as §1

GlcNAc(b1-3)Gal = target: GlcNAc(b1-3)Gal
Procedure, shortened: as §1

[6] = target: GlcNAc(b1-3)Gal(b1-3)GalNAc
Procedure, shortened: as §1

GlcNAc(b1-3)Gal(b1-4)Glc = target: GlcNAc(b1-3)Gal(b1-4)Glc
Procedure, shortened: as §1

[7] = target: GlcNAc(b1-3)Gal(b1-4)GlcNAc
Procedure, shortened: as §1

[8] = target: GlcNAc(b1-3)Gal(b1-4)GlcNAc(b1-3)Gal(b1-4)GlcNAc
Procedure, shortened: as §1

GlcNAc(b1-3)GalNAc = target: GlcNAc(b1-3)GalNAc
Procedure, shortened: as §1

[9] = target: GlcNAc(b1-3)[GlcNAc(b1-6)]Gal(b1-4)GlcNAc
Procedure, shortened: as §1

[10] = target: GlcNAc(b1-3)[GlcNAc(b1-6)]GalNAc
Procedure, shortened: as §1

[11] = target: GlcNAc(b1-3)[GlcNAc(b1-6)]GlcNAc(b1-4)GlcNAc
Procedure, shortened: as §1

[12] = target: GlcNAc(b1-4)Gal(b1-4)GlcNAc
Procedure, shortened: as §1

[13] = target: GlcNAc(b1-4)GlcNAc(b1-4)GlcNAc
Procedure, shortened: as §1

[14] = target: GlcNAc(b1-4)GlcNAc(b1-4)GlcNAc(b1-4)GlcNAc(b1-4)GlcNAc
Procedure, shortened: as §1

[15] = target: GlcNAc(b1-4)GlcNAc(b1-4)GlcNAc(b1-4)GlcNAc(b1-4)GlcNAc(b1-4)GlcNAc
Procedure, shortened: as §1

[16] = target: GlcNAc(b1-4)[GlcNAc(b1-6)]GalNAc
Procedure, shortened: as §1

[17] = target: GlcNAc(b1-6)Gal(b1-4)GlcNAc
Procedure, shortened: as §1

GlcNAc(b1-6)GalNAc = target: GlcNAc(b1-6)GalNAc
Procedure, shortened: as §1

Kdn(a2-3)Gal(b1-3)GlcNAc = target: Kdn(a2-3)Gal(b1-3)GlcNAc
Procedure, shortened: as §1

Kdn(a2-3)Gal(b1-4)GlcNAc = target: Kdn(a2-3)Gal(b1-4)GlcNAc
Procedure, shortened: as §1

[18] = target: Man(a1-2)Man(a1-2)Man(a1-3)Man
Procedure, shortened: as §1

[19] = target: Man(a1-2)Man(a1-2)Man(a1-6)[Man(a1-3)]Man
Procedure, shortened: as §1

Man(a1-2)Man(a1-3)Man = target: Man(a1-2)Man(a1-3)Man
Procedure, shortened: as §1

[20] = target: Man(a1-2)Man(a1-3)[Man(a1-2)Man(a1-6)]Man
Procedure, shortened: as §1

[21] = target: Man(a1-2)Man(a1-3)[Man(a1-2)Man(a1-6)]Man(a1-6)[Man(a1-2)Man(a1-2)Man(a1-3)]Man(b1-4)GlcNAc(b1-4)GlcNAc
Procedure, shortened: as §1

[22] = target: Man(a1-2)Man(a1-3)[Man(a1-6)]Man(a1-6)[Man(a1-2)Man(a1-3)]Man(b1-4)GlcNAc(b1-4)GlcNAc
Procedure, shortened: as §1

[23] = target: Man(a1-2)Man(a1-6)[Man(a1-3)]Man(a1-6)[Man(a1-2)Man(a1-2)Man(a1-3)]Man(b1-4)GlcNAc(b1-4)GlcNAc
Procedure, shortened: as §1

Man(a1-3)[Man(a1-6)]Man = target: Man(a1-3)[Man(a1-6)]Man
Procedure, shortened: as §1

B1: Siglec-H (Mus musculus), Q4QQK7 (protein)
chain: MLLSRLLPLLWVLKWASGNCFILPREVIGTYPSLTLELQSVTVQEGLCVLVPCHLIEYPMNRWSDAAFGYWFHEGENTHPDSLVATNKPYQLVQKEMQSRFHFSGDCSLDIRDAQKGDNGSYFFRLEKGGKTWNFCEERISVHVTDLTHSPNISIPQTLELGRPTNVMCSVPWACERGTPPIFSWMSAALISLGPTTTLSSVLTLTPRLQDHGTNLTCQVTFPGAGVTVQKTIQLNVTYNSQNSTAHVSGRVGPGKPRPLADVVQVAMGEAAIKFLLLGICFFFLSKRSHTKRVERPATHMDQAHAVMD
glycan array binding signal (z-score) (Gal4S6S(b1-4)GlcNAc): -0.159
glycan array binding signal (z-score) (Gal6S(b1-4)Glc): 0.181
glycan array binding signal (z-score) (Gal6S(b1-4)Glc6S): -0.331
glycan array binding signal (z-score) (Gal6S(b1-4)GlcNAc): -0.159
glycan array binding signal (z-score) (GalNAc(a1-3)Gal): -0.32
glycan array binding signal (z-score) (GalNAc(a1-3)GalNAc): -0.342
glycan array binding signal (z-score) [1]: 1.08
glycan array binding signal (z-score) (GalNAc(b1-3)GalNAc): -0.393
glycan array binding signal (z-score) (GalNAc(b1-4)GlcNAc): -0.266
glycan array binding signal (z-score) (Glc(a1-4)Glc): 0.219
glycan array binding signal (z-score) (Glc(a1-6)Glc(a1-6)Glc): 1.6
glycan array binding signal (z-score) (Glc(b1-4)Glc): -0.31
glycan array binding signal (z-score) (Glc(b1-6)Glc): 0.754
glycan array binding signal (z-score) (GlcA(b1-3)Gal): 1.24
glycan array binding signal (z-score) (GlcA(b1-6)Gal): -0.235
glycan array binding signal (z-score) [2]: -0.125
glycan array binding signal (z-score) [3]: 2.05
glycan array binding signal (z-score) [4]: -0.316
glycan array binding signal (z-score) [5]: -0.351
glycan array binding signal (z-score) (GlcNAc(b1-3)Gal): -0.315
glycan array binding signal (z-score) [6]: -0.361
glycan array binding signal (z-score) (GlcNAc(b1-3)Gal(b1-4)Glc): -0.331
glycan array binding signal (z-score) [7]: -0.301
glycan array binding signal (z-score) [8]: -0.28
glycan array binding signal (z-score) (GlcNAc(b1-3)GalNAc): -0.335
glycan array binding signal (z-score) [9]: -0.321
glycan array binding signal (z-score) [10]: -0.364
glycan array binding signal (z-score) [11]: -0.32
glycan array binding signal (z-score) [12]: -0.248
glycan array binding signal (z-score) [13]: -0.352
glycan array binding signal (z-score) [14]: -0.024
glycan array binding signal (z-score) [15]: -0.229
glycan array binding signal (z-score) [16]: -0.313
glycan array binding signal (z-score) [17]: -0.379
glycan array binding signal (z-score) (GlcNAc(b1-6)GalNAc): -0.31
glycan array binding signal (z-score) (Kdn(a2-3)Gal(b1-3)GlcNAc): -0.29
glycan array binding signal (z-score) (Kdn(a2-3)Gal(b1-4)GlcNAc): -0.227
glycan array binding signal (z-score) [18]: -0.235
glycan array binding signal (z-score) [19]: 1.27
glycan array binding signal (z-score) (Man(a1-2)Man(a1-3)Man): -0.251
glycan array binding signal (z-score) [20]: -0.324
glycan array binding signal (z-score) [21]: -0.252
glycan array binding signal (z-score) [22]: -0.228
glycan array binding signal (z-score) [23]: 1.92
glycan array binding signal (z-score) (Man(a1-3)[Man(a1-6)]Man): -0.263
